Several values for one entry are separate records, joined by “and”; a condition that tells them apart may be missing. Equal values may be shown once. Screen size: about 340,000 compounds; about 12,000 (3.5%) were called active. The inconclusive results got no clear call from the source; some entries with a clear call stand among them for comparison. The call rests on the fitted dose curve; in most records, active means well fitted inhibition curve with a large enough effect; inconclusive means small, poorly fitted or top-dose-only effect, or another doubt; inactive means no such curve, though single readings can be large or run the other way. A potency beside an inconclusive call is a rough fit, not a confirmed value.
assay: qHTS Assay for Inhibitors of Hepatitis C Virus (HCV); settings: Huh7.5.1 HCVcc-Cre (HCVcc is cell-culture hepatitis C virus) infection, luciferase reporter, 44 h; activity change, negative = inhibition: at 41.8 µM (top of the series)
Summary of the method: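 Antiviral activity was scored by luciferase reporter output from cells infected with HCVcc-Cre (~0.5 moi) in presence of compound, 44 h infection period, cells seeded 1,000/well 4 h prior.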
On the % scale 0 is the no-effect control and ±100 the full control effect; potency means the concentration at half of the fitted maximal effect; tags describe the fitted curve by direction and shape.

SMILES	Potency	activity change, negative = inhibition
O=C(Nc1ccc(Cl)c(C(F)(F)F)c1)NC1CC2CCCC(C1)N2C1CC1 (stereo unspecified)	inconclusive: 5.01 µM [inhibitor, single point]	–
COc1ccc(-c2onc(C)c2-c2cnn(-c3ccccc3)c2)c(O)c1	inconclusive: 11.2 µM [inhibitor, partial curve]	–
Cc1cc(N2CCN(c3nc(-c4ccccc4)cs3)CC2)c2ccccc2n1	inconclusive: 1.58 µM [inhibitor, full curve]	–
O=C(Nc1ccc(NC(=O)c2cccs2)cc1Cl)c1ccco1	inactive	–
COc1cc2c(cc1OC)CN(C(=O)CSc1nc3[nH]ncc3c(=O)n1-c1ccccc1)CC2	active: 11.2 µM	–
O=C(c1ccc(F)cc1F)N1CCN(c2ncccn2)CC1	inactive	–
NC1=NC(=O)C(c2ccccc2)(c2ccccc2)S1	inactive	–
O=C(/C=C/c1ccc2c(c1)OCO2)c1ccco1	inactive	–
Cc1ccc(NC(=O)c2nc[nH]c2C(=O)NCc2ccccc2)cc1	inconclusive: 6.31 µM [inhibitor, partial curve]	–
C=CCNc1oc(-c2cccc3ccccc23)nc1C#N	active: 6.31 µM	–
CCN(c1cccc(C)c1)S(=O)(=O)c1ccc(-c2coc(C)n2)cc1	inconclusive: 22.4 µM [inhibitor, single point]	–
O=C(Cn1c(=O)oc2cc(S(=O)(=O)N3CCc4ccccc43)ccc21)NC1CCCC1	inconclusive: 12.6 µM [inhibitor, single point]	–
COc1ccccc1C(=O)NCC(=O)N1CCN(C/C=C/c2ccccc2)CC1	inconclusive: 28.2 µM [inhibitor, single point]	–
Cc1ccc(OCC(O)CN2CCN(Cc3ccc4c(c3)OCO4)CC2)c(C)c1 (stereo unspecified)	inconclusive: 12.6 µM [inhibitor, single point] and inconclusive: 11.2 µM [inhibitor, single point]	–
CCn1nc(NC(=O)C2CCCO2)c2cc3cccc(C)c3nc21 (stereo unspecified)	–	inconclusive: -38.4% [inhibitor]
O=S1(=O)N=C2CCCCCN2C(c2ccc(Br)cc2)N1 (stereo unspecified)	inactive	–
CCCOc1cccc(-c2nn(-c3ccccc3)cc2/C=C(\C#N)C(=O)NCCCn2ccnc2)c1	inconclusive: 10 µM [inhibitor, partial curve]	–
CN(c1ccc(OCc2nnc(-c3ccccc3)o2)cc1)S(=O)(=O)c1ccccc1	inconclusive: 12.6 µM [inhibitor, partial curve] and inconclusive: 31.6 µM [inhibitor, single point]	–
CCc1ccc(S(=O)(=O)/N=C2\C=C(Nc3ccc(C(=O)O)cc3)C(=O)c3ccccc32)cc1	inconclusive: 25.1 µM [inhibitor, single point]	–
CCOC(=O)c1cnc2ccc(OCC)cc2c1N1CCN(C)CC1	inconclusive: 15.8 µM [inhibitor, single point]	–
CC(=O)N(C)c1ccc(NC(=O)Nc2cccc3ccccc23)cc1	active: 12.6 µM	–
COC(=O)c1cn(C(=O)OC)c2ccccc12	active: 5.62 µM	–
NS(=O)(=O)c1ccc(N2CCN(CCOc3ccc(Cl)cc3)CC2)nc1	inconclusive: 20 µM [inhibitor, single point]	–

SMILES	Potency	activity change, negative = inhibition
CCc1ccc(N2C(=O)CN(Cc3cc(OC)c(OC)c(OC)c3)C2=S)cc1	inconclusive: 6.31 µM [inhibitor, partial curve]	–
CCc1nc2c(C#N)c(-c3ccc(Cl)cc3)ccn2n1	inconclusive: 20 µM [inhibitor, single point]	–
CN1C(=O)C2(N=c3ccccc3=N2)c2ccccc21	active: 11.2 µM	–
CCOc1ccc(CNC(=O)C(C)n2nc(C)c3c(C)n(-c4ccccc4)nc3c2=O)cc1 (stereo unspecified)	inactive	–
Cc1cc2oc(=O)cc(CN3CCN(Cc4ccccc4)CC3)c2cc1O	active: 11.2 µM	–
CCS(=O)(=O)N1CCC(C(=O)O)CC1	inactive	–
O=C(O)c1cccc(N/N=C/c2cccnc2)c1	inactive	–
COc1ccc(S(=O)(=O)N2CCSC2c2ccc(OC)c(OC)c2)cc1 (stereo unspecified)	inactive	–
Cc1ccc(-n2cc(CNC(C)Cn3cncn3)c(-c3ccc(F)cc3)n2)cc1 (stereo unspecified)	inactive	–
COC1=C(Nc2ccc(O)cc2)C(=O)c2ccccc2C1=O	inconclusive: 22.4 µM [inhibitor, single point]	–
N/C(Cc1ccc([N+](=O)[O-])cc1)=N\OC(=O)c1ccccc1Br	inconclusive: 14.1 µM [inhibitor, single point]	–
COc1ccc(-c2cc3nc(CCl)[nH]c(=O)c3s2)cc1	inconclusive: 7.94 µM [inhibitor, partial curve, poor fit]	–
Cc1cc(C)c(C)c(OCc2nc(-c3cccnc3)no2)c1	inactive	–
O=C1[C@@H]2[C@@H]3C[C@@H]([C@H]4ON=C(c5ccc(Cl)cc5Cl)[C@@H]34)[C@@H]2C(=O)N1C1CCCCC1	inconclusive: 20 µM [inhibitor, single point]	–
CC(C)(C)C(=O)NC(=S)Nc1cc(C(F)(F)F)ccc1N1CCOCC1	inconclusive: 11.2 µM [inhibitor, partial curve]	–
O=C(CCCOc1ccc(Cl)cc1)Nc1nncs1	inconclusive: 31.6 µM [inhibitor, single point]	–
CCCC1(CCC)NC(=O)N(CC(=O)Nc2ccc(Cl)c(S(=O)(=O)N3CCOCC3)c2)C1=O	inactive	–
Cc1nc(NC(=O)c2ccccc2)sc1-c1csc(NCc2ccccc2)n1	inconclusive: 7.94 µM [inhibitor, partial curve]	–
COc1cc(CN2CCCC(CO)(Cc3ccccc3)C2)ccc1O (stereo unspecified)	inactive	–
O=C(CSc1ccc2c(c1)OCCO2)Nc1ncc(Cl)cc1Cl	inconclusive: 31.6 µM [inhibitor, single point]	–
CC(=O)N(/N=C/c1cccc(C)c1)c1nc(-c2ccc(Br)cc2)cs1	inactive	–
COc1cc(-n2c(=S)[nH]c3ccc(C)cc3c2=O)c(Cl)cc1Cl	active: 10 µM	–
COc1ccc(-c2cc(-c3ccccc3)[n+](C)c(-c3ccccc3)c2)cc1	inconclusive: 31.6 µM [inhibitor, single point]	–

Source: PubChem BioAssay AID651820 (National Center for Advancing Translational Sciences (NCATS), 2012)
